# Reference: publication PMC4336329 (PLoS ONE, 2015)
# Among all 310,000 compounds or so, about 2,200 (0.71%) showed an effect of 50% or more. Effects have a minus sign here. Some of the results follow.
# Target: human ether-à-go-go-related gene (hERG) potassium channel (human, UniProt Q12809)
# Test: primary screen, population patch clamp on CHO cells stably expressing hERG
# Chain of human ether-à-go-go-related gene (hERG) potassium channel (Q12809 whole entry, looked up): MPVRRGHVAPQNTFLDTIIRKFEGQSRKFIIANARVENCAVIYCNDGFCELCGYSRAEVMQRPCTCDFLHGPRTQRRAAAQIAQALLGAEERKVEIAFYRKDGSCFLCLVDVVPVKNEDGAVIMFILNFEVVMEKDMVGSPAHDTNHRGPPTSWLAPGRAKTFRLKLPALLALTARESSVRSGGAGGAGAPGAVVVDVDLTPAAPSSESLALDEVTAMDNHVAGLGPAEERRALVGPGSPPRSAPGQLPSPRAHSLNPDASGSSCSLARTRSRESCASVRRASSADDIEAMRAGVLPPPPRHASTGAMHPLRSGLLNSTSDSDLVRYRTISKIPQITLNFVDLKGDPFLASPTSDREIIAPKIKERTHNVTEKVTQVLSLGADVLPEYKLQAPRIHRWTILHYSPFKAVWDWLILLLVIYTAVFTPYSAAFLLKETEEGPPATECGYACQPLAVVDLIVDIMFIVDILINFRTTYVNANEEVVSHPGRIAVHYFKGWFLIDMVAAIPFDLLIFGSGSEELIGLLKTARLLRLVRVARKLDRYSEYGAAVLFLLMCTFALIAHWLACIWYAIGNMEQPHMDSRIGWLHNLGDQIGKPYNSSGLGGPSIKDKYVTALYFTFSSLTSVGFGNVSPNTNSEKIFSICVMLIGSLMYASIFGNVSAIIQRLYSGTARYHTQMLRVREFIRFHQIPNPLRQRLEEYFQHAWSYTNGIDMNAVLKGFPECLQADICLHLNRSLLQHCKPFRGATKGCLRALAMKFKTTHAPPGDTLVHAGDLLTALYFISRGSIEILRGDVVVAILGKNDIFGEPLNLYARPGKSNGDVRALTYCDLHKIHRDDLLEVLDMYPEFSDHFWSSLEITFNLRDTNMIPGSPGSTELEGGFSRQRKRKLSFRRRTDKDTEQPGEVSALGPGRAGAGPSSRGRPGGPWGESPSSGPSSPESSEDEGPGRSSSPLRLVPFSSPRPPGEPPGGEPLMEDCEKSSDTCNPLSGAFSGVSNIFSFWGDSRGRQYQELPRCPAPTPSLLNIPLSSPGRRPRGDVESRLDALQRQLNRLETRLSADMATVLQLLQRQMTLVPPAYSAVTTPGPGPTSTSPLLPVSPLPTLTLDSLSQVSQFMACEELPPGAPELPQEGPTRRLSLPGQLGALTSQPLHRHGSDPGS
row,SMILES,"hERG current change (%, negative = inhibition) at 1uM [%]"
1,COc1ccc(S(=O)(=O)c2ccccc2)cc1NC(=O)c1c(F)cccc1F,9.35
2,O=C(CSc1nnc(-c2ccncc2)n1-c1ccc(Cl)cc1)NCc1cccs1,5.9
3,Cn1c(=O)c2c(nc(CN3CCc4ccccc4C3)n2Cc2ccc(F)cc2)n(C)c1=O,3.26
4,Cc1ccccc1OCC(=O)Nc1nnc(COc2ccccc2)s1,16.4
5,CCCc1nc2ccccc2c(=O)n1CC(=O)c1ccc(OC)cc1,12.3
6,CC(C)C(=O)Nc1cccc(NC(=S)NC(=O)c2ccccc2Cl)c1,-4.92
7,O=C(CSc1ncn(-c2ccccc2)n1)Nc1nncs1,-5.58
8,CCn1c(-c2cc(OC)c(OC)c(OC)c2)n[nH]c1=S,12
9,OCCOCCN1CCN(C(=S)Nc2ccccc2)CC1,5.76
10,O=C(CSc1nc2cc(S(=O)(=O)N3CCOCC3)ccc2o1)Nc1c(F)cccc1F,9.51
11,Clc1ccc(OCc2nn3c(-c4ccccc4)nnc3s2)c(Cl)c1,-0.224
12,Cc1ccc(/C([O-])=C(/C(=S)NCc2ccco2)[n+]2ccccc2)cc1[N+](=O)[O-],6.35
13,C=CCn1c(SCC(=O)NC2CCS(=O)(=O)C2)nnc1-c1cc2c(s1)CCC(CC)C2 (stereo not shown),6.6
14,CCOc1ccc(NC(=O)C(=S)NC2CCCCC2)cc1,11.2
15,CC1(C)C(=O)Nc2ccccc2N1C(=O)CSc1nnc2ccccn12,3.25
16,COc1ccc(/C=N/NC(=O)c2ccc(C)nc2)cc1O,14.2
17,COCCN1C(=O)C(=O)/C(=C(/O)c2cccc(S(=O)(=O)N(C)C)c2)C12C(=O)N(C)c1ccccc12 (stereo not shown),9.86
18,CC1(C)CC(=O)c2cnc(NCC3CCCO3)nc2C1 (stereo not shown),11.7
19,COc1cccc(OC)c1C(=O)Nc1ccc2c(c1)CCCN2S(=O)(=O)c1ccc(C)cc1,9.28
20,Cc1nn(C)c(C)c1S(=O)(=O)N1CCCC(C(=O)N2CCN(c3ccccc3)CC2)C1 (stereo not shown),5.62
21,CCc1cc2c(SCC(=O)c3ccc(C)cc3)ncnc2s1,14.8
22,O=C(NCc1ccccc1)C1CCC(CNc2c(N3CCCCC3)c(=O)c2=O)CC1 (stereo not shown),19.8

row,SMILES,"hERG current change (%, negative = inhibition) at 1uM [%]"
1,Cc1ccc2oc(C(=O)N3CCC(O)(c4ccccc4)CC3)c(C)c2c1,9.53
2,CC(C)CC(=O)OC1C(N2CCOCC2)c2c(ccc(/C=C/C(=O)N3CCOCC3)c2O)OC1(C)C (stereo not shown),-3.49
3,CCOc1ccc(CNS(=O)(=O)c2ccc(-c3ccc(=O)[nH]n3)o2)cc1OC,15.1
4,O=C(N/N=C/c1cn(-c2cccs2)nc1-c1ccccc1)c1ccc(O)cc1,15.2
5,Cc1c(C(=O)NCCSCc2ccc(F)cc2)cnn1-c1ccc(Cl)cc1,-8.88
6,COc1cccc(/C=C/C(=O)c2cccc([N+](=O)[O-])c2)c1OC,-0.655
7,COc1ccc(NS(=O)(=O)c2ccc(Br)s2)cc1OC,9.55
8,CN(C)NC(=S)Nc1cccc(Cl)c1,11.8
9,O=c1[nH]cnc2scc(-c3cccs3)c12,8.1
10,COc1cc(/C=C/C(=O)NC(C)C)ccc1OCc1ccccc1,12.2
11,CC1=NC(C)(C)Cc2c(C)cccc21.Cl,10.3
12,COc1ccc(CCNC(=O)COc2ccc(S(=O)(=O)NC(C)C)cc2Cl)cc1OC,5.95
13,Cn1c(=O)[nH]c(=O)c2c1nc(SCC(=O)[O-])n2CCOc1ccccc1.[Na+],15.7
14,CCN(CC)S(=O)(=O)c1cccc(NC(=O)COC(=O)CCc2nc3ccccc3s2)c1,14.5
15,CCOC(=O)/C(C#N)=N/Nc1c(S(=O)(=O)Cc2ccco2)csc1C(=O)OC,12
16,COc1ccc(Cl)cc1NC(=O)CSc1nncn1-c1cccnc1,6.23
17,COc1ccc(-n2nc(C(=O)NCC(=O)NCC3CCCO3)c3ccccc3c2=O)cc1 (stereo not shown),10.5
18,CC1CCCN(C(=O)CCS(=O)(=O)Cc2ccccc2)C1 (stereo not shown),9.84
19,Cc1c(NC(=O)Cc2ccccc2)cccc1C(=O)NN1C(=O)c2ccccc2C1=O,-1.4
20,C=C(C)CSc1nnc([C@@H]2CCCN2)o1.Cl,17.6
21,COc1ccccc1NS(=O)(=O)c1ccc(C(=O)NCCCN2CCCC2=O)cc1,8.88
22,CCCC(c1nnnn1C1CCCC1)N1CCN(C(=O)c2ccco2)CC1.Cl (stereo not shown),-11.7

row,SMILES,"hERG current change (%, negative = inhibition) at 1uM [%]"
1,COc1ccccc1NS(=O)(=O)c1ccc(O)c(NC(=S)NCC2CCCO2)c1 (stereo not shown),11.1
2,C[C@H](NC(=O)N1CCn2c1nc1ccccc12)C(=O)NC1CC1,16.6
3,CCn1c(CCCOc2ccc(Cl)cc2Cl)nnc1SCC(=O)Nc1cc(F)ccc1C,10.7
4,CC(=O)NCCC(=O)Nc1nc2c(ccc3ccccc32)s1,2.61
5,O=C(OCC(=O)c1c[nH]c2ccccc12)c1cccc(S(=O)(=O)N2CCCCCC2)c1,9.14
6,O=C(O)CC(c1ccccc1)n1cccc1 (stereo not shown),9.23
7,COc1c(Cl)cc(-c2noc(C)c2C(=O)NCc2ccc3c(c2)OCO3)cc1Cl,10.5
8,O=S(=O)(c1cccs1)N1CCN(c2cccc(Cl)c2)CC1,7.08
9,CCOC(=O)C1CCN(C(=O)COC(=O)c2cc([N+](=O)[O-])ccc2N2CCOCC2)CC1,1.29
10,O=C(Nc1ccc(C(F)(F)F)cc1)C1CCN(S(=O)(=O)c2ccc(N3CCCC3=O)cc2)CC1,16.5
11,Nc1nc(N)nc(-c2ccccn2)n1,11.8
12,Cc1ccc(N2C(=O)c3ccccc3C2Nc2ccccc2F)nc1 (stereo not shown),11.4
13,Cc1cc(C)c(S(=O)(=O)N(C)CC(=O)N2CCCCC2)c(C)c1,2.58
14,O=C(Cc1cccs1)Nc1nnc(SCc2cccc3ccccc23)s1,-3.03
15,CCn1cc(/C=N\NC(=O)c2ccc(Cl)cc2)cn1,6.62
16,CS(=O)(=O)c1ccc2nc(NC(=O)C3CC(=O)N(c4ccc(F)cc4)C3)sc2c1 (stereo not shown),13.5
17,Cc1nn(-c2ccccc2)c(N2CCCC2)c1/C=C1\N=C(c2ccc(F)cc2)OC1=O,8.64
18,CC(=O)c1c(C)oc2ccc(N(C(C)=O)S(=O)(=O)c3cccc([N+](=O)[O-])c3)cc12,15.4
19,CC1CCN(C(=O)CN2C(=O)C(C)(C)Oc3ccc(C(=O)NC(C)C)cc32)CC1,6.29
20,O=C(CNC(=O)c1ccc([N+](=O)[O-])cc1)c1ccccc1,0.298
21,C/C=C(\C)CN1CCC(Oc2ccc(C(=O)NCc3ccccn3)cc2)CC1,14.8
22,Cc1ccc(N=C/C(C(=O)C(F)(F)F)=C(\O)c2cccs2)cc1,17.4

row,SMILES,"hERG current change (%, negative = inhibition) at 1uM [%]"
1,CCOC(=O)CC1ON(C)C(=O)N1c1ccc(Cl)cc1Cl (stereo not shown),-1.26
2,COC(=O)c1ccc(COc2ccccc2/C=N/NC(=O)c2cccnc2)cc1,13.1
3,CC(C)(C)CC(=O)O/N=C(\N)c1ccncc1,10.1
4,O=C(NC1CCCCCCC1)C1=COCCO1,10.1
5,NC(=O)C1CCN(c2cc(Cl)ccc2[N+](=O)[O-])CC1,12.6
6,COc1cccc2c1OC1(C)CC2NC(=O)N1c1cccc(C(=O)Nc2ccc3c(c2)OCCO3)c1 (stereo not shown),11
7,Cc1nc2ccccc2c(=O)n1CC(=O)N1CCOCC1,6.48
8,CC(C)(C)C(=O)CSc1ncccn1,14
9,O=C(O)C[C@H]1c2cc(C(F)(F)F)ccc2S(=O)(=O)N1C1CCCCC1,22.5
10,Cc1cc(C(=O)OCC(=O)c2ccc(Cl)c([N+](=O)[O-])c2)c2cccc(C)c2n1,9.57
11,COC(=O)c1sccc1NC(=O)c1ccco1,15.6
12,COCCNS(=O)(=O)c1ccc(SC)cc1,13.1
13,C=CCn1c(COc2ccccc2)nc2ccccc21,-2.04
14,CCOc1ccc(C(=O)NCc2cccs2)cc1,5
15,COC(=O)C(C(=O)OC)=C(/C=C/N(C)C)N(C)C,7.2
16,CCc1c(O)nc(SCC(=O)c2ccccc2)n(-c2ccccc2)c1=O,19.7
17,CCOC(=O)c1c(N)nn(C(=O)C(C)(C)C)c1-c1ccccc1,10.6
18,Cc1cc(C)cc(-n2c(O)c(C=NC3CCS(=O)(=O)C3)c3ccccc3c2=O)c1 (stereo not shown),4.25
19,CCOc1ccc(CCNC(=O)COc2cc(=O)n(C)c3ccccc23)cc1OCC,-2.83
20,Cc1ccc(CNC(=O)CNC(=O)c2ccc(Br)o2)cc1,12.1
21,CN(C)CCCSc1ccccc1NC(=O)/C=C/c1ccccc1.Cl.O,-2.32
22,Cc1ccc2c(c1)c1c3n2CCN(C(=O)C2CC2)C3CCC1 (stereo not shown),7.06
